{
  "source": "paper PMC4336329",
  "about": "(PLoS ONE, 2015)",
  "note": "The whole screen tested about 310,000 compounds, of which about 2,200 (0.71%) showed an effect of 50% or more. The effect is printed as a negative number. The list shows a part of the results.",
  "data": [
    {"target": "human ether-à-go-go-related gene (hERG) potassium channel (human, UniProt Q12809)", "sequence (Q12809 whole entry, looked up)": "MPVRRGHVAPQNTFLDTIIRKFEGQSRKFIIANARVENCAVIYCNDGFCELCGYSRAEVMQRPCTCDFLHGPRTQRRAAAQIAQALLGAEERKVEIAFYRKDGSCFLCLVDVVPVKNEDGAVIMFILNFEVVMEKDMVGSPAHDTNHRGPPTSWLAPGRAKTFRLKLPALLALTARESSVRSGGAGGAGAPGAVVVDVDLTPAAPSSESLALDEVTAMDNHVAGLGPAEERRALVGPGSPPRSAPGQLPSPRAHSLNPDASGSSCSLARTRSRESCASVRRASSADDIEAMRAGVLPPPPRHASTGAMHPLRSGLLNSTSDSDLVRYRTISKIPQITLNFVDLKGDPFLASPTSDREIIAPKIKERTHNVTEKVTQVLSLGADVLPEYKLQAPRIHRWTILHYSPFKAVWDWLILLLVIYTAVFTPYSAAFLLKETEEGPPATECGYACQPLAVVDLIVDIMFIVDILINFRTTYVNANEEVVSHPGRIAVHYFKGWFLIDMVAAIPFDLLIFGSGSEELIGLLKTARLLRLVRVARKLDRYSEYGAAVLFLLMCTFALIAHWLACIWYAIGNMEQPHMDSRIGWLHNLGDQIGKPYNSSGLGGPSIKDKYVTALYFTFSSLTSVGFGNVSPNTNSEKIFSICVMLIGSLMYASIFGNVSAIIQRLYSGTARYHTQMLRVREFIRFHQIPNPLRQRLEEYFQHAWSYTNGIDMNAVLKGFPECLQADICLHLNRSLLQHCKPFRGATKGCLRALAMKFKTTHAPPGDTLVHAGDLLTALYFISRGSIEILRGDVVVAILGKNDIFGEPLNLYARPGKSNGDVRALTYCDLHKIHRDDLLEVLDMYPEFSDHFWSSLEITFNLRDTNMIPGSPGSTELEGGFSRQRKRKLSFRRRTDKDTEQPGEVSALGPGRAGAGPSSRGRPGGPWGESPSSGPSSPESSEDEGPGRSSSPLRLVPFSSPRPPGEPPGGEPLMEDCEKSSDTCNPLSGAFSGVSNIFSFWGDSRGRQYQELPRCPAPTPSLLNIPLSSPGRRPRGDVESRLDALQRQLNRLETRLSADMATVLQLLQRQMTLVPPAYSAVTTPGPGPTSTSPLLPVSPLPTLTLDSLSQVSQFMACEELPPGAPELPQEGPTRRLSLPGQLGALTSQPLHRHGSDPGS", "experiment": "primary screen, population patch clamp on CHO cells stably expressing hERG", "units": {"hERG current change (%, negative = inhibition) at 1uM": "%"}, "values": [
      {"smiles": "O=C(CNC(=O)c1ccc(Br)o1)NCC1CCCO1", "note": "(centres unmarked)", "hERG current change (%, negative = inhibition) at 1uM": -1.84},
      {"smiles": "O=C(NC1CCN(C(=O)Nc2ccccc2Cl)CC1)c1ccco1", "hERG current change (%, negative = inhibition) at 1uM": 11.7},
      {"smiles": "Cc1ccc2nc(N(CCCN(C)C)C(=O)COc3ccc(Cl)cc3)sc2c1.Cl", "hERG current change (%, negative = inhibition) at 1uM": 7.58},
      {"smiles": "CC(=O)Nc1ccc(CN2CCC(n3nccc3NC(=O)CCc3ccccc3)CC2)cc1", "hERG current change (%, negative = inhibition) at 1uM": 11.7},
      {"smiles": "CCOC(=O)Cc1cc(=O)n(-c2nc3ccccc3s2)[nH]1", "hERG current change (%, negative = inhibition) at 1uM": 0.918},
      {"smiles": "O=C1CCN(S(=O)(=O)c2ccccc2)CCN1CCOCc1ccc(Cl)cc1", "hERG current change (%, negative = inhibition) at 1uM": 5.64},
      {"smiles": "Cc1c(Cl)cccc1NC(=O)C1CC2CCC1C2", "note": "(centres unmarked)", "hERG current change (%, negative = inhibition) at 1uM": 11.1},
      {"smiles": "Cc1ccc(NC(=O)c2ccc(S(=O)(=O)N3CCCCCC3)cc2)nc1", "hERG current change (%, negative = inhibition) at 1uM": 7.73},
      {"smiles": "CNC(=O)Nc1cc(C(F)(F)F)cc(C(F)(F)F)c1", "hERG current change (%, negative = inhibition) at 1uM": 12.7},
      {"smiles": "C/C(CC(=O)NCCCN1CCOCC1)=N\\NC(=O)COc1cccc2ccccc12", "hERG current change (%, negative = inhibition) at 1uM": 5.72},
      {"smiles": "CC(C)=C1SC(N2CCN(Cc3ccccc3)CC2)=NC1=O", "hERG current change (%, negative = inhibition) at 1uM": 6.15},
      {"smiles": "O=C1CCC(=O)N1CC(=O)N1c2ccccc2Sc2ccccc21", "hERG current change (%, negative = inhibition) at 1uM": 10.1},
      {"smiles": "Cc1ccc(S(=O)(=O)N2CC=C(c3c(C)n(C)c4ccccc34)CC2)cc1", "hERG current change (%, negative = inhibition) at 1uM": 14.1},
      {"smiles": "O=C(Cc1c(F)cccc1Cl)Nc1cc(S(=O)(=O)N2CCCCC2)ccc1N1CCOCC1", "hERG current change (%, negative = inhibition) at 1uM": -27.3},
      {"smiles": "O=C(Cc1coc2ccc3ccccc3c12)N1CCCC1", "hERG current change (%, negative = inhibition) at 1uM": 14.6},
      {"smiles": "COc1ccc(CN(CC(=O)NC2CCCC2)C(=O)CCC(=O)Nc2nccs2)cc1", "hERG current change (%, negative = inhibition) at 1uM": 9.78},
      {"smiles": "CC(=O)Nc1ccc(OCC(O)CN2CCCCC2C)cc1.Cl", "note": "(centres unmarked)", "hERG current change (%, negative = inhibition) at 1uM": 13.2},
      {"smiles": "CCS(=O)(=O)c1ncc(Cl)c(C(=O)Nc2ccc(S(=O)(=O)N3CCCC(C)C3)cc2)n1", "note": "(centres unmarked)", "hERG current change (%, negative = inhibition) at 1uM": 13},
      {"smiles": "COc1cccc(CNC(=O)c2ccncc2)c1", "hERG current change (%, negative = inhibition) at 1uM": 18.6},
      {"smiles": "CC(C)(C)N(CC#CCC1(O)c2ccccc2-c2ccccc21)CCO", "hERG current change (%, negative = inhibition) at 1uM": 16.9},
      {"smiles": "COc1ccc(CCNC(=O)CSc2nnnn2Cc2ccc3c(c2)OCO3)cc1OC", "hERG current change (%, negative = inhibition) at 1uM": 3.77},
      {"smiles": "CCc1ccccc1Nc1nc(N)nc(COC(=O)CCNS(=O)(=O)c2ccccc2)n1", "hERG current change (%, negative = inhibition) at 1uM": 5.16},
      {"smiles": "Cc1cc(NC(=O)c2ccoc2C)no1", "hERG current change (%, negative = inhibition) at 1uM": 6.87},
      {"smiles": "CCCOc1ccc(N2C(=O)CC(SCc3nc4ccccc4[nH]3)C2=O)cc1", "note": "(centres unmarked)", "hERG current change (%, negative = inhibition) at 1uM": -7.42},
      {"smiles": "COc1cccc(OC2OC3COC(C)(C)OC3C(O)C2NC(C)=O)c1", "note": "(centres unmarked)", "hERG current change (%, negative = inhibition) at 1uM": 7.13},
      {"smiles": "O=[N+]([O-])c1ccc(NCCOc2ccccc2Cl)nc1", "hERG current change (%, negative = inhibition) at 1uM": 10.7},
      {"smiles": "CCOC(=O)C1(Cc2cccc(F)c2)CCN(C(=O)Cn2cnnn2)CC1", "hERG current change (%, negative = inhibition) at 1uM": 8.16},
      {"smiles": "COC(=O)Cn1c(C(=O)N2CCCC2)cc2c1C[C@H]1CN(C(=O)c3ccccc3)[C@@](Cc3ccc(F)cc3)(C(=O)OC)[C@@H]21", "hERG current change (%, negative = inhibition) at 1uM": -12.9},
      {"smiles": "Cc1ccccc1OCCOC(=O)c1c(-c2ccccc2)noc1C", "hERG current change (%, negative = inhibition) at 1uM": 7.11},
      {"smiles": "CSCCC(NC(N)=O)C(=O)Nc1ccc(C)cc1", "note": "(centres unmarked)", "hERG current change (%, negative = inhibition) at 1uM": 15.3},
      {"smiles": "Cc1cc(-n2nc(C)cc2C)nc(NS(=O)(=O)c2ccccc2Cl)n1", "hERG current change (%, negative = inhibition) at 1uM": 14},
      {"smiles": "CCN(C(=O)CSc1ncccc1C(=O)O)C1CCCCC1", "hERG current change (%, negative = inhibition) at 1uM": 22.2},
      {"smiles": "Cc1cc(C(=O)N(C)C2CCCCC2)no1", "hERG current change (%, negative = inhibition) at 1uM": 8.87},
      {"smiles": "O=C(CN1C(=O)COc2ccccc21)NCCCN1CCCCC1", "hERG current change (%, negative = inhibition) at 1uM": 12.1},
      {"smiles": "NC(=O)C1CCN(c2oc(-c3ccccc3)nc2S(=O)(=O)c2ccc(Br)cc2)CC1", "hERG current change (%, negative = inhibition) at 1uM": 1.61},
      {"smiles": "CCNC(=O)C1CC(=O)N(Cc2ccc3c(c2)OCO3)C(=Nc2ccc(OCC)cc2)S1", "note": "(centres unmarked)", "hERG current change (%, negative = inhibition) at 1uM": 1.71},
      {"smiles": "Cc1ccccc1[C@@]1(C)ON(c2ccccc2C(F)(F)F)C1=O", "hERG current change (%, negative = inhibition) at 1uM": 7.64},
      {"smiles": "CCOC(=O)N1CCN(C(=O)c2c[nH]c3ccc(S(=O)(=O)N(C)c4ccc(OCC)cc4)cc3c2=O)CC1", "hERG current change (%, negative = inhibition) at 1uM": -8.3},
      {"smiles": "COc1nc(N=C(N)N)nc2c(C)cccc12", "hERG current change (%, negative = inhibition) at 1uM": -1.54},
      {"smiles": "CNC(=O)c1c(NC(=O)C2=COCCO2)sc(C)c1C", "hERG current change (%, negative = inhibition) at 1uM": 18.6},
      {"smiles": "CCCCn1c(N)c(N(CC(C)C)C(=O)c2oc3ccc(Br)cc3c2C)c(=O)[nH]c1=O", "hERG current change (%, negative = inhibition) at 1uM": 0.954},
      {"smiles": "O=C(NC1=NCCS1)c1cccc(S(=O)(=O)N2CCOCC2)c1", "hERG current change (%, negative = inhibition) at 1uM": 6.73},
      {"smiles": "N#Cc1ccc(C23CC4(C2)[C@H](CN(Cc2ccc(-c5ccccc5)cc2)[C@@H]4c2ccccc2)C3c2ccccc2)cc1", "note": "(some centres unmarked)", "hERG current change (%, negative = inhibition) at 1uM": 12.7},
      {"smiles": "O=C(O)/C=C/C(=O)Nc1ccc2c(c1)NC(=O)CO2", "hERG current change (%, negative = inhibition) at 1uM": 10.4}
    ]}
  ]
}
